The values below come from PubChem BioAssay AID463173 (ICCB-Longwood Screening Facility, Harvard Medical School, 2010).

SMILES strings stand for the structures. In all, about 52,000 compounds went through this assay and about 1,700 (3.3%) were called active. Rule as the data show it: active = survival mostly below about 52% (no sharp cut-off); inactive = mostly above about 56%. Some of the results follow.

This assay relates to Wild type. Description: growth inhibition of S. aureus wild type versus tarO mutant, primary screen, teichoic acid synthesis inhibitors, RN4220, OD600 (AID 463173). Conditions: S. aureus RN4220 wild type/DeltatarO growth, OD600, 18 h, stronger effect = lower value, screened at 18.75 µg/mL (by protocol).
Turning to `CCOc1ccc(Cn2c(CNS(=O)(=O)c3c(C)cc(C)cc3C)nc3cccnc32)cc1`, the survival is inactive: 47%.

As for `CCC(C)n1c(SCc2ccc(C(C)(C)C)cc2)nc2ccsc2c1=O` (stereo not drawn), the survival was inactive: 55%.

With `Cc1nnc(NC(=O)CSc2nccn2-c2ccc(Cl)cc2)s1`, the survival was inactive: 126%.

Regarding `O=C(CCC1CCCC1)Nc1ccc2c(c1)OCO2`, the survival was inactive: 106%.

Turning to `NC(=O)CSc1nsc(SCC(N)=O)n1`, the survival is inactive: 109%.

Take `O=S(=O)(c1ccccc1)c1nc(-c2cccs2)oc1SCc1ccccc1Cl`: the survival was inactive: 68%.

Turning to `Cc1ccc(OCc2nc(-c3ccc(C(=O)N4CCN(c5cc(Cl)ccc5C)CC4)cc3)oc2C)cc1`, the survival is inactive: 70%.

On to `COC(=O)c1ccc(C(=O)OC)c(NC(=O)N2CC3CCCN3c3ccccc32)c1` (stereo not drawn), for which the survival was inactive: 85%.

Regarding `CCOC(=O)CC(=O)CSc1nc2ccccc2c(=O)n1-c1ccc(C(=O)NCCOC)cc1`, the survival was inactive: 73%.

As for `N#Cc1c(NC(=O)C(F)(F)F)oc(-c2ccccc2)c1-c1ccccc1`, the survival was inactive: 43%.

On to `Cc1ccc(Cl)cc1N1CCN(C(=O)c2cc3c(=O)n(C)c4ccccc4c3s2)CC1`, for which the survival is inactive: 62%.

In the case of `CCOc1ccccc1NC(=O)CSc1nc2c([nH]c3ccccc32)c(=O)n1-c1ccccc1`, the survival was inactive: 75%.

For the molecule `O=C(CC1NCCNC1=O)Nc1ccccc1F` (stereo not drawn), the survival is inactive: 92%.

As to `CCOC(=O)c1c(-c2ccc(C)cc2)csc1NC(=O)c1cc(=O)c2cc(Cl)ccc2o1`, the survival is inactive: 115%.

With `O=C(C1CC1)N1CCc2cc(Br)cc(S(=O)(=O)N3CCN(c4cccc(Cl)c4)CC3)c21`, the survival is inactive: 84%.

In the case of `Cc1ccc2nc(COc3cccc(NC(=O)COc4ccccc4F)c3)cc(=O)n2c1`, the survival was inactive: 130%.

On to `CCOC(=O)c1cc(-c2ccccc2)n(-c2cccc(C(=O)Nc3cccc(C)c3)c2)c1C`, for which the survival is inactive: 121%.

As for `O=C(Nc1ccc2nc(SCC(=O)N3CCCC3)sc2c1)c1ccc(Br)cc1`, the survival is inactive: 118%.

As to `Cc1ccc(CSc2ccc3nnc(CCNS(=O)(=O)c4ccc(C)cc4)n3n2)cc1`, the survival was inactive: 82%.

Turning to `Cc1cccc(OCC(=O)OCc2cc(=O)n3nc(-c4cccs4)sc3n2)c1`, the survival was inactive: 72%.

Turning to `Cc1ccc(-n2ncc(C(=O)N3CCN(c4ccccn4)CC3)c2C2CCN(C(=O)OC(C)(C)C)CC2)cc1`, the survival is inactive: 68%.

In the case of `O=C(NCc1ccccc1)c1nc[nH]c1C(=O)NCc1ccccc1`, the survival is inactive: 123%.

In the case of `CCC(C)NC(=O)Cn1c(=O)n(-c2ccc(Cl)c(Cl)c2)c(=O)c2c(C)c(C(=O)N(CC)CC)sc21` (stereo not drawn), the survival was inactive: 49%.

As to `Cc1cccc(NC2=NCC(=O)N2Cc2ccccc2)c1`, the survival was inactive: 102%.

`CCc1nn(Cc2cccc(F)c2)c(=O)c2cc3cc(C)ccc3n12`: the survival was inactive: 31%.

With `COc1ccc(CN(C(=O)c2cc3sccc3n2C)C2CC(C)(C)NC(C)(C)C2)cc1`, the survival is inactive: 121%.

On to `Cc1ccc(NC(=O)c2cc(S(=O)(=O)N3CCCc4ccccc43)ccc2F)cc1F`, for which the survival is inactive: 97%.

Turning to `COc1ccc(Nc2c(-c3ccc(C)o3)nc3ccc(Cl)cn23)cc1`, the survival is inactive: 87%.

For the molecule `COC(=O)c1ccccc1NC(=O)Cn1c(=O)nc(-c2ccccc2)c2cc(Cl)ccc21`, the survival was inactive: 72%.

Regarding `Cc1cc(Nc2ccc(C(=O)O)cc2)nc(N)n1`, the survival was inactive: 103%.

Regarding `Cc1cccc(C)c1Nc1c(-c2cccs2)nc2ncccn12`, the survival was inactive: 72%.

In the case of `CCS(=O)(=O)N1CCC(NC(=O)c2ccccc2Cl)CC1`, the survival was inactive: 127%.

Turning to `Cc1oc(CC(C)C)cc1C(=O)O`, the survival is inactive: 110%.

With `CCCCC(=O)Nc1cc2nn(-c3ccc(OCC)cc3)nc2cc1C`, the survival was inactive: 78%.

On to `Cc1ccc(OCC(=O)Nc2cc(-c3nc4ccccc4[nH]3)ccc2C)c(C)c1`, for which the survival was inactive: 107%.

Take `NNC(=O)c1ccc2[nH]c3c(c2c1)CCCC3`: the survival is inactive: 114%.

As to `c1ccc(CCN2CNc3nc4ccccc4n3C2)cc1`, the survival was inactive: 108%.

As to `Cc1cccc(Cn2cc(S(=O)(=O)c3ccc(Cl)cc3)c(=O)c3cc4c(cc32)OCO4)c1`, the survival is inactive: 98%.

Take `CC(=O)c1ccc(NC(=O)c2ccc(NC(=O)CCS(=O)(=O)c3cccs3)cc2)cc1`: the survival is inactive: 72%.

For `Cc1cccc(OCCSc2nc3ccc(NC(=O)c4cccs4)cc3s2)c1`, the survival was inactive: 65%.

As for `O=C(c1ccco1)N1CCN(C(=O)C2CCCN(S(=O)(=O)Cc3ccccc3)C2)CC1` (stereo not drawn), the survival is inactive: 101%.

With `CS(=O)(=O)N1CCC(n2c(C(F)(F)F)nc3cccnc32)CC1`, the survival is inactive: 60%.

`CCn1c(Cc2ccccc2)nnc1SCC(=O)N1CCCCC1C` (stereo not drawn): the survival was inactive: 116%.

Regarding `Cn1c(=O)c2c(SCC(=O)NCC3CCCO3)nc(-c3cccc(F)c3)nc2n(C)c1=O` (stereo not drawn), the survival was inactive: 85%.

As to `Cc1ccc(NC(=O)c2c(C(=O)Nc3ccccc3)sc3nc(C)cc(=O)n23)c(C)c1`, the survival is inactive: 88%.

For the molecule `CCOC(=O)CSc1nc(-c2ccccc2)cc(C(F)(F)F)c1C#N`, the survival was inactive: 85%.

For `Cc1nn(-c2ccccc2)c(OC(=O)c2ccc(F)cc2)c1S(=O)(=O)c1ccccc1`, the survival was inactive: 59%.

For `Fc1ccc(N=C(CN2CCCCC2)N2CCCCC2)cc1`, the survival was inactive: 108%.

Turning to `CCn1c(CN2CCCCC2)nc2cc(NC(=O)c3ccccc3[N+](=O)[O-])ccc21`, the survival was inactive: 83%.

`CSc1ncc(C(=O)NCc2ccc(Cl)cc2)c(C(F)(F)F)n1`: the survival was inactive: 74%.

As for `CCCn1cc(S(=O)(=O)c2ccc(C)cc2)c(=O)c2cc(OC)c(OC)cc21`, the survival is inactive: 77%.

For the molecule `COc1cccc(NC(=O)C(=O)NCCc2csc(-c3ccc(C)cc3)n2)c1`, the survival was inactive: 85%.

As for `COc1ccc(C2=C(C)C(N3CCC(C(=O)Nc4cc(C)ccc4C)CC3)=NS2(=O)=O)cc1`, the survival is inactive: 55%.

On to `CCN(C(=O)CCNC(=O)Cn1cnc2ccccc2c1=O)c1cccc(Cl)c1`, for which the survival was inactive: 83%.

With `CCOc1ccc(C(=O)Nc2ccc(C(=O)OCc3cc(=O)n4ccsc4n3)cc2)cc1`, the survival is inactive: 87%.

Consider `O=C(Nc1cccc2cccnc12)c1cccc2ccccc12`, for which the survival is active: 1%.

Consider `CCOC(=O)c1ccc(NC(=O)c2csc3c2CCCC3)cc1`, for which the survival is inactive: 26%.

Consider `COC(=O)c1ccc(Cl)cc1NC(=O)NCc1c(-n2cccc2)sc2c1CCCC2`, for which the survival was inactive: 79%.
